Laboratory results from PubChem BioAssay AID1963576 (National Center for Advancing Translational Sciences (NCATS), 2024).
Hit rate of the full screen: of about 46,000 compounds, about 60 (0.1%) were called active. Inconclusive results (about 3%) are left out. Calls come from the whole dose curve; as a rule, active = well fitted inhibition curve with a large enough effect; inconclusive = small, poorly fitted or top-dose-only effect; inactive = no such curve, though single readings can be large or run the other way. The list shows a part of the results.

Experiment: Primary qHTS assay for Inhibitors of ovarian cancer metastasis using an organotypic tumor microenvironment (TME) model.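 For activity change, negative = inhibition: plate controls were DMSO wells for no effect and tomatine positive control wells for full effect.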 Note: nearly all actives have a fitted effect of over 65% in size.
Details: SKOV3ip1-GFP adhesion/invasion on 3D omental model, fluorescence; series mostly up to 45.8 µM; activity change, negative = inhibition: at the top concentration
Procedure, shortened: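 qHTS, 4-pt dose (0.36-46 umol/L); SKOV3ip1-GFP, 1,200 cells/well, no FBS; primary omental fibroblast/mesothelial co-culture 48 h pre-grown; 2 h RT + 16 h 37 C; PBS wash, 4% PFA; GFP count 488/509 nm.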

outcome, inactive:
Cc1cc(C)c(NC(=O)Nc2sc3nc4n(c(=O)c3c2C)CCC(C)CC4)c(C)c1 (stereo not given), CC(=O)c1ccc(NC(=O)CSc2nnc(NC(=O)NC3CCCCC3)s2)cc1, CC(C)OCCCNC(=O)c1c2c(nc3ccccc13)C(=O)N(C1CCCCC1)C2, Cc1ccc(Nc2c(-c3ccc(N4CCOCC4)cc3)nc3ncccn23)c(C)c1, CCOC(=O)c1cccc(NC(=O)c2cc3c(=O)n(C)c4ccccc4c3n2C)c1, Cc1ccc(Nc2ncc(C(=O)N3CCN(c4ccc(F)cc4)CC3)c3ccccc23)cc1Cl, N#Cc1ccc(C(=O)NCc2ccc3c(c2)CCN3C(=O)c2ccc(F)cc2)cc1, CCOC(=O)c1ccc(N2C(=O)c3n[nH]c(C)c3C2c2ccccc2OC)cc1 (stereo not given), CCc1ccc2oc(C(=O)Nc3c(C)n(C)n(-c4ccccc4)c3=O)cc(=O)c2c1, Cc1cccc(Cn2nc(C)n3c(cc4cc(C)ccc43)c2=O)c1, Cc1cccc(CCNc2ncnc3onc(-c4ccc(Cl)cc4)c23)c1, Cc1oc(-c2cccc(Cl)c2)nc1CS(=O)(=O)CC(=O)NCc1ccccc1Cl, CC(=O)c1ccc(NC(=O)C2Cc3ccccc3N2C(=O)c2ccccc2)cc1 (stereo not given), Cc1nn(CC(=O)NCc2ccc(Cl)cc2)c(=O)c2cc3sccc3n12, COc1ccc(Oc2c(C(F)(F)F)oc3c(CN4CCCC(C)C4)c(O)ccc3c2=O)cc1 (stereo not given), CN(C)S(=O)(=O)c1ccc2c(c1)N(CC(=O)NCc1ccc(F)cc1)C(=O)CS2, CC1=C(c2ccc(C)cc2)S(=O)(=O)NC1=NCCCN1CCN(c2ccccc2F)CC1, COc1ccc(-c2cc3ccc(O)c(CN4CCC(C)CC4)c3oc2=O)cc1, COc1ccc(-n2nc(C(=O)Nc3cc(OC)c(OC)c(OC)c3)c(=O)n(C)c2=O)cc1, CCN(c1ccccc1C)S(=O)(=O)c1ccc(N2CCCCS2(=O)=O)cc1, c1ccc(N2CCN(Cc3cccn3-c3nnc(N4CCN(C5CCCCC5)CC4)s3)CC2)cc1, CCc1ccc(-c2nn(CC(=O)NC3CCCCC3)c3c2cnc2ccc(C)cc23)cc1

Activity change, negative = inhibition, inactive:
Cc1cc(C)cc(Nc2ncnc3sc4c(c23)CCCC4)c1 -4.9%, Cc1ccn2c(Nc3ccc(C(C)C)cc3)c(-c3ccsc3)nc2c1 -3.65%, Cc1cccc(Cn2c(CNC(=O)c3ccccc3)nc3ccccc32)c1 -0.756%, Cc1nn(C(C)C(=O)Nc2cccc(F)c2)c(=O)c2c1sc1ccccc12 (stereo not given) 4.7%, COCCNC(=O)CCSc1nc(-c2ccc(OC)cc2)cc(C(F)(F)F)n1 2.12%, CCCCCOc1ccccc1Cn1c(=O)oc2ccc(C)cc21 1.62%, O=C(Cn1c(-c2cccs2)cc2ccccc21)NCCCN1CCN(c2ccc(F)cc2)CC1 13%, Cc1ccccc1C(OCCN(C)C)c1ccccc1 (stereo not given) 25.2%, O=C(NC1CCCC1)c1ccc(CSc2nc3cccnc3n2Cc2ccccc2F)cc1 -0.336%, CC1CCCN(Cc2c(O)ccc3c(=O)c(-c4ccccc4Cl)c(C(F)(F)F)oc23)C1 (stereo not given) 1.11%, O=C(COc1ccc(Cl)cc1)N(Cc1ccco1)c1ccccn1 -1.65%, Cc1cc(C)c(NS(=O)(=O)c2ccc3c(c2)NC(=O)CCS3)c(C)c1 6.4%, CCC(C)Cn1c(/C=C/c2ccccc2)nc2ccccc21 (stereo not given) -3.67%, CCCCn1c(=O)c2oc3ccccc3c2n(Cc2cccc(F)c2)c1=O 1.04%, O=C(CSc1oc(-c2ccco2)nc1S(=O)(=O)c1ccc(Br)cc1)c1ccccc1 0.317%, CCS(=O)(=O)c1ccc(O)c(Nc2cc(C)nc(SC)n2)c1 3.8%, CCC(=O)C1=C(c2ccc(Cl)cc2)N(C(=O)CC)n2c(C)nnc2S1 -21%, Cc1ccc(S(=O)(=O)C(CNC(=O)c2ccc(F)c(F)c2)c2ccco2)cc1 (stereo not given) 8.62%, Cc1cncc2cccc(S(=O)(=O)N3CCCN(C(=O)CN)C[C@@H]3C)c12 2.42%, CC1CCN(S(=O)(=O)c2nnc(NC(=O)c3ccc(C(C)C)cc3)s2)CC1 -0.328%, O=C(CCCN1C(=O)c2cccnc2Oc2ccc(Cl)cc21)NCc1ccccc1F 14.3%, COc1ccc2cc(-c3nc(-c4ccc(S(C)=O)cc4)[nH]c3-c3ccncc3)ccc2c1 (stereo not given) 0.892%, CC(C)c1cnc2c(c1SCC(=O)Nc1ccc(OC(F)(F)F)cc1)c(=O)n(C)c(=O)n2C -6.5%, O=C(c1cc(-c2cccc(Cl)c2)on1)N1CCN(c2ccccc2)CC1 -8.33%, Cc1ccc(NC2=C(CC(=O)O)C(c3ccc(F)cc3)N(c3ccc(C)cc3)C2=O)cc1 (stereo not given) -9.35%, Cc1ccc(CNC(=O)CCN2C(=O)COc3ccc(C)cc32)cc1 11.7%, CCc1nnc2c(Nc3cccc(F)c3)nc3ccc(C(=O)c4ccccc4)cc3n12 1.65%, CCOc1ccccc1NC(=O)N(Cc1ccc(F)cc1)C1CCN(CC)CC1 -9.02%, Cc1ccsc1CN(C(=O)c1oc2ccc(F)cc2c1C)C1CCS(=O)(=O)C1 (stereo not given) -1.06%, COc1ccc(NC(=O)c2c(NCc3ccc(N(C)C)cc3)sc3c2CCC3)cc1 4.53%, Cc1ccc(CNC(=O)CC(C)CC2=NS(=O)(=O)c3ccccc3N2)cc1 (stereo not given) 1.22%, CCc1ccc(N2CCn3c2nc2c3c(=O)n(C/C=C/c3ccccc3)c(=O)n2C)cc1 -1.63%, COc1cccc(CNS(=O)(=O)c2cc3[nH]c(=O)c(=O)[nH]c3cc2C)c1 8.08%, CCc1ccc(NC(=O)c2ccc(F)c(S(=O)(=O)N3CCC4(CC3)OCCO4)c2)cc1 15.9%, Cc1ccc(C)c(-n2c3nc(=O)[nH]c(=O)c-3cc3c(C)nn(-c4ccccc4)c32)c1 9.88%, CCOc1ccc(-c2nonc2NC(=O)c2oc3cc(C)c(C)cc3c2C)cc1OCC 4.39%, Cc1ccc(NC(=O)C2CCCN2S(=O)(=O)c2cccc3nsnc23)c(C)c1 (stereo not given) 0.693%, Cc1ccccc1Cn1c2ccccc2c2cnn(CC(=O)NC(C)CCc3ccccc3)c(=O)c21 (stereo not given) 23.9%, COC(=O)c1ccc(NC(=O)CN(CCc2ccccc2)S(=O)(=O)c2ccc(OC)cc2)cc1 3.15%, CCOc1ccc(-n2c(SCC(=O)N3CCC(C)CC3)nc3c([nH]c4ccccc43)c2=O)cc1 -4.66%, CCn1c(C(=O)NCc2ccc(OC(C)C)cc2)cc2oc3ccccc3c21 3.95%, CCOc1ccc(C(=O)NCCc2sc(-c3ccc(OC)c(OC)c3)nc2C)cc1 -10.8%, Cc1ccccc1OCC(=O)Nc1sc2c(c1C(=O)OC(C)C)CCCC2 0.385%, Cc1ccc(C)c(N2CCN(C(=O)c3cc(C)nc4c3c(C)nn4-c3cccc(F)c3)CC2)c1 -6.15%, Cc1ccc(C)c(N2CCN(c3ccc4cc(S(=O)(=O)N5CCC(C)CC5)ccc4n3)CC2)c1 -2.47%, COc1ccccc1NC(=O)c1cc(S(=O)(=O)N2CCN(c3ccccc3Cl)CC2)ccc1F 1.27%, COC(=O)c1ccc(C2c3c(oc4ccccc4c3=O)C(=O)N2c2nc(C)c(C(=O)OC)s2)cc1 (stereo not given) 0.693%, O=C(Nc1cc(Cl)cc(Cl)c1)c1ccc2c(c1)N(Cc1cccc(Cl)c1)C(=O)c1ccccc1S2=O (stereo not given) -4.57%, Cc1nn(CC(=O)O)c(=O)c2cc3cc(F)ccc3n12 -2.41%, COc1ccc2c(CNCc3cccs3)c(C(=O)O)n(Cc3ccc(C)cc3)c2c1 7.2%, Cc1ccc2c(c1)c(=O)c1ccccc1n2CCCC(=O)Nc1cc(Cl)ccc1C 1.68%, Cc1oc2ccc(O)c(CN3CCN(C)CC3)c2c1C(=O)Nc1cccc(Cl)c1C -7.39%, Cc1cccc(-n2c(=O)c3c(c4cc(C)ccc4n3C)n(CC(=O)NCC3CCCO3)c2=O)c1 (stereo not given) -1.68%, CCCOc1ccc(C(=O)Nc2cc3c(cc2N2CCOCC2)n(C)c(=O)n3C)cc1 -26.7%, Cc1cccc(N2C(=O)C(CC(=O)Nc3ccc(Cl)cc3)N(Cc3ccco3)C2=O)c1 (stereo not given) -2.91%, Cc1cc(-c2ccc(CC(=O)Nc3ccc(-c4cccnc4)cc3)cc2)ccn1 -11.8%, COC(=O)c1scc(-c2ccc(C)cc2)c1S(=O)(=O)Nc1ccc(F)cc1F -0.627%, Cc1ccc(CN2CCCn3nc(C(=O)NC(C)C)cc3C2=O)cc1 12.6%, CC(=O)Nc1nonc1-c1nnc(SCC(=O)Nc2cccc(F)c2)n1-c1ccccc1 0.738%, Cc1ccc(N2CCN(S(=O)(=O)c3cc(C(=O)Nc4cc(Cl)cc(Cl)c4)ccc3F)CC2C)cc1 (stereo not given) -4.07%, O=C(Nc1ccc2oc(-c3cccnc3)nc2c1)c1ccc(Br)cc1 1.96%, COc1ccc(NC(=O)Cn2c(=O)n(Cc3nc(-c4ccccc4)no3)c(=O)c3cc4c(cc32)OCO4)c(OC)c1 -7.19%, COc1ccccc1N1CCN(c2ccc(=O)n(CC(=O)NCc3ccc(OC(C)C)cc3)n2)CC1 -20%, Cc1ccc(NC(=O)Cn2cc3c(n2)CCCC3)c(Cl)c1 -1.7%, COc1ccc(C)cc1NC(=O)Cn1c(=O)c(C(F)(F)F)nc2ccccc21 -9.84%, COc1ccc(-n2nc(C(=O)N3CCN(c4ccc(F)cc4)CC3)c3c4ccccc4n(C)c3c2=O)cc1 -6.69%, O=C(Nc1ccc2oc(-c3cccnc3)nc2c1)c1ccc(-c2ccccc2OC(F)(F)F)o1 2.82%, Cc1nn(C)c2c1c(C(F)(F)F)cc(=O)n2CC(=O)NCCC(C)C 9.05%, Cc1cccc(-c2nc3scc(CCNS(=O)(=O)c4ccc(Oc5ccccc5)cc4)n3n2)c1 -22.7%, O=C(O)c1ccc(Nc2nc3ccccc3n3cnnc23)cc1 6.88%, COc1ccc(C2CC(c3ccccc3)=NN2c2ccc(S(N)(=O)=O)cc2)cc1 (stereo not given) 11.2%, O=C(CN1CCN(Cc2cccc(Cl)c2)C1=O)NCc1ccc(F)cc1 13.2%, CCc1ccccc1NS(=O)(=O)c1ccc2c(c1)CCN2C(=O)C1CC1 -4.44%
